Assay results as given in PMC2828323 (Current biology : CB, 2009).

Molecular target: T1, full-length 6His-Syp1 (S. cerevisiae, UniProt P25623 1-870)
T1 sequence (looked up): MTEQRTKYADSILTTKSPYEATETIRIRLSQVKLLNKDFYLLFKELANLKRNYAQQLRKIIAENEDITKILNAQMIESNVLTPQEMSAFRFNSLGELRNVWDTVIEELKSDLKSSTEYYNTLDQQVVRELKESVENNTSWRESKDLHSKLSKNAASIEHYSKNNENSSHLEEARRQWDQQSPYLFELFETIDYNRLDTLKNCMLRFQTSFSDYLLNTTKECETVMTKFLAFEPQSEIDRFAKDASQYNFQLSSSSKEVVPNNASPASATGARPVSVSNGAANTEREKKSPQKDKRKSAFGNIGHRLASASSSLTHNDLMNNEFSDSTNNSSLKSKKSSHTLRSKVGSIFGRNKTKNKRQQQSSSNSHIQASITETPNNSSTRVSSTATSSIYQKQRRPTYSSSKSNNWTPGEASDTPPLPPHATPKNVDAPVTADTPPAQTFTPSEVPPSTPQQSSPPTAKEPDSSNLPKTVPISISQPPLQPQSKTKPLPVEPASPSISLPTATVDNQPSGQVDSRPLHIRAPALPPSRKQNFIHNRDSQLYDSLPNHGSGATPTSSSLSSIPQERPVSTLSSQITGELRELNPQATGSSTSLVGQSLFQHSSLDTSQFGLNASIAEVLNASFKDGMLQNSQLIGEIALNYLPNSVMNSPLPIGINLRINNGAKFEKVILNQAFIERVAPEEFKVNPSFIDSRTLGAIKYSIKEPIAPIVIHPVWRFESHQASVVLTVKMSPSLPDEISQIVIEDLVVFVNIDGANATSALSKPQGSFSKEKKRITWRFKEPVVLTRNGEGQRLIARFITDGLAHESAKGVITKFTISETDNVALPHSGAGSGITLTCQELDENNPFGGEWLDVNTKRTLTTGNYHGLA
Assay: pull-down

binding result: binds
B1: full-length Las17/WASp (natural protein)
chain: not shown
